Read counts are not given, so values of variants with three or more changes are uncertain.
B1: CPEB3 Ribozyme (parent)
chain: UAACAGGGGGCCACAGCAGAAGCGUUCACGUCGCAGCCCCUGUCAGAUUCUGGUGAAUCUGCGAAUUCUGCUGUAUAUCUC

Variants of: B1
Experiment: self-cleavage, relative activity (ratio to wild type); higher = more cleavage; in vitro, sequencing
In short: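 For each CPEB3 ribozyme variant, relative activity is its cleaved/total read fraction divided by the unmutated ribozyme's. Barcoded error-prone PCR libraries were transcribed by T7 RNA polymerase (5 hours, 37°C) and held in DNase I for 15 min before an EDTA stop, with cleavage occurring throughout. Template-switching reverse transcription and Illumina sequencing were used to read the RNAs. A 5-read minimum applied, and results are the mean of three batches.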

| Variant | self-cleavage |
| --- | --- |
| UAACAGGGGGCCACAGCAGAAGCGUCCACGUCGCGGCCCCUGUCAGAUUCUGGUGGAUCUGCGAUUUCCGCUGUAUAUCUC [U26C A35G A56G A65U U69C] | 0.28 |
| UAACAGGGGGCCACAGCAGAAGCGUCCUCGUCGCAGCCCCUGUCAGAUUCUGGCGAAUCUGCGAAUUCUGCAGUAUAUCUC [U26C A28U U54C U72A] | 0.11 |
| UAACAGGGGGCCACAGCAGAAGCGUCCUCGCCGCAGCCCCUGUCAGAUCCUGGUGAAUCUGCGAAUUCUGCUGAAUAUCUC [U26C A28U U31C U49C U74A] | 0.06 |
| UAACAGGGGGCCACAGCAGAAGCGUCCACGUCGCGGCCCCUGUCAGAUUCUGGUGUAUCUGCGAAUUCUGCUGUAUAUCUC [U26C A35G A56U] | 0.87 |
| UAACAGGGGGCCACAGCAGAAGCGUCCACGUCGCGGCCCCUGUCAGAUUCUGGUGAACCUGCGAUUUCUGCCGGAUAUCUC [U26C A35G U58C A65U U72C U74G] | 0.22 |
| UAACAGGGGGCCACAGCAGAAGCGUCCACGUCGCUGCCCCUGUCAGGUUCUGGUGAAUCUGCGAAUCCAGCCGUAUAUCUC [U26C A35U A47G U67C U69A U72C] | 0.08 |
| UAACAGGGGGCCACAGCAGAAGCGUCCACGUCGCGGCCCCAGUCAGAUUCUGGUGGAUCUGCAAAUUCCGCUGUAUACCUC [U26C A35G U41A A56G G63A U69C U78C] | 0.08 |
| UAACAGGGGGCCACAGCAGAAGCGUCCACGUCGCUGCCCCUGUCUGAUUCCGGUGGAUCUGCGAACUCUGCUGUAAAUCUC [U26C A35U A45U U51C A56G U66C U76A] | 0.13 |
| UAACAGGGGGCCACAGCAGAAGCGUCCACGUCGCGGCCCCAGUCAGAUUCUGGUGAAUCUGCGAAUUCUGCUGUAUAUCUC [U26C A35G U41A] | 0.1 |
| UAACAGGGGGCCACAGCAGAAGCGUCCUCGUCGCAGCCCCUGUCAGAUUCUGGUGAAUCUGCGAAUUCUGCUAUAUAUCUC [U26C A28U G73A] | 0.77 |
| UAACAGGGGGCCACAGCAGAAGCGUCCUCGACGCAGCCCCUGUCAGAUUCAGGAGAAUCAGCGAAUUCUGUUGUAUAUCUC [U26C A28U U31A U51A U54A U60A C71U] | 0.13 |
| UAACAGGGGGCCACAGCAGAAGCGUCCACGUCGCGGCCCCUGUCAGAGUCUGGUGAAUCUGCGAAUUCUGCUGUAUAUCUC [U26C A35G U48G] | 0.51 |
| UAACAGGGGGCCACAGCAGAAGCGUCCACGUCGCGGCCCCUGUCAGAUUCUGGUGAAACUGCGAAUUCUGCUGUACAUCUC [U26C A35G U58A U76C] | 0.65 |
| UAACAGGGGGCCACAGCAGAAGCGUCCACGUCGCGGCCCCUGUCAGAUUCUGCUGAAUCUGCGAAUUCUGCUGUAUAUCUC [U26C A35G G53C] | 1.1 |
| UAACAGGGGGCCACAGCAGAAGCGUCCACGUCGCGGCCCCUGACAGAUUCUGGUGAAUCCGCGAAUUCUGCUGUAUAUCUC [U26C A35G U43A U60C] | 0.12 |
| UAACAGGGGGCCACAGCAGAAGCGUCCACGUCGCGGCUCCUGUAAGAUUCUGGUGAAUCUGCGAAUUCUGCUGUAUAUCUC [U26C A35G C38U C44A] | 0.41 |
| UAACAGGGGGCCACAGCAGAAGCGUCCACGUCGCGGCCCCUGUCAGAUCCUGGUGAAUCUGCGAAUUCUGCUGUAUAUCUC [U26C A35G U49C] | 0.34 |

| Variant | self-cleavage |
| --- | --- |
| UAACAGGGGGCCACAGCAGAAGCGUCCACGUCGCGGCCCCCGUCAGAUUCCGGUGAAUCUGCGAAUUCUGCUGUAUAUCUC [U26C A35G U41C U51C] | 0.74 |
| UAACAGGGGGCCACAGCAGAAGCGUCCUCGUCGCAGCCCCUGCCAGAUACUGGCGAAUCUGCGAAUUCUGCUGUAUAUCUC [U26C A28U U43C U49A U54C] | 0.15 |
| UAACAGGGGGCCACAGCAGAAGCGUCCACGUCGCUGCCCCUGUCAGAUUCUGGUGGAUCUGCGAAUUCUGCUGUAUAUCUC [U26C A35U A56G] | 0.2 |
| UAACAGGGGGCCACAGCAGAAGCGUCCACGUCGCUGCCCCUGUCAGAUUCUGGUGAGUCUGCGAAUUCUGCUGUAUAUCUC [U26C A35U A57G] | 0.19 |
| UAACAGGGGGCCACAGCAGAAGCGUCCUCGUCGCAGCCCCUGUCAGAUUCUGGUGAAUCUGCGAAUUCUGCAGUAUAUCUC [U26C A28U U72A] | 0.19 |
| UAACAGGGGGCCACAGCAGAAGCGUCCACGUCGCGGCCCCGGUCAGAUUCUGGUGAAUCUGCGAAUUCUACUGUAUAUCCC [U26C A35G U41G G70A U80C] | 0.19 |
| UAACAGGGGGCCACAGCAGAAGCGUCCACGUCGCGGCCCCUGUCGGAUUCUGGUGAAUCUGCGGACUCUGCUGUAUAUCCC [U26C A35G A45G A64G U66C U80C] | 0.21 |
| UAACAGGGGGCCACAGCAGAAGCGUCCACGUCGCGGCCCCUGUCAGAUUUUGGUGAAUCUGCGAAUACUGCUGUAUAUCUC [U26C A35G C50U U67A] | 0.67 |
| UAACAGGGGGCCACAGCAGAAGCGUCCACGUCGCGGCCCCUGUCAGAUUCUGGUGAACCUGCGAAUCCUGCUGCAUAUCUC [U26C A35G U58C U67C U74C] | 0.19 |
| UAACAGGGGGCCACAGCAGAAGCGUCCACGUCGCGGCCCCUGUCAGAUUCUGGUGAAUCUGCGAAUUCUGCUGUACAUCUC [U26C A35G U76C] | 1.17 |
| UAACAGGGGGCCACAGCAGAAGCGUCCACGUCGCUGCCCCUGUCGGUUUCUGGUGAAUCUGCGAGUUCUGCUGUAAAUCUC [U26C A35U A45G A47U A65G U76A] | 0.05 |
| UAACAGGGGGCCACAGCAGAAGCGUCCACGUCGCGGCCCCUGUCAGAUUCCGGUGAAUCUGCGAAUUCUGCUGUAUAUCUC [U26C A35G U51C] | 1.03 |
| UAACAGGGGGCCACAGCAGAAGCGUCCACGUCGCGGCCCCUGUCAGAUCCUGGUGAAUCUGCGAAUUCUGCUGUAUACCUC [U26C A35G U49C U78C] | 0.59 |
| UAACAGGGGGCCACAGCAGAAGCGUCCUCGUCGCAGCCCCUGUCAGAUUCUGGUGAGUCUGCGAAUUCUGCUGUAUAUCUC [U26C A28U A57G] | 0.25 |
| UAACAGGGGGCCACAGCAGAAGCGUCCACGUCGCGGCCCCUGUCAGACUCCCGUGAAUCUGCGAAUUCUGCUGUAUAUCUC [U26C A35G U48C U51C G52C] | 0.23 |
| UAACAGGGGGCCACAGCAGAAGCGUCCACGUCGCGGCCCCUGUCAGAUUCUGGUGAAUCUGCGAAUUCUGCUGAAUAUCUC [U26C A35G U74A] | 1.17 |
| UAACAGGGGGCCACAGCAGAAGCGUCCACGUCGCGGCCCCAGUCAGAUUCUGGUGAAUCUGCGAAUUCAGCUGUAUAUCUC [U26C A35G U41A U69A] | 0.1 |

— the RNAGym collection of RNA variant scans (doi:10.1093/nar/gkz1192)
